Measured values reported in paper PMC4336329 (PLoS ONE, 2015).
The campaign covered roughly 310,000 compounds. About 14,000 (4.5%) showed an effect of 50% or more. The effect is printed as a negative number. The list shows a part of the results.

Molecular target: human ether-à-go-go-related gene (hERG) potassium channel (human, UniProt Q12809)
Test: primary screen, population patch clamp on CHO cells stably expressing hERG
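Further: peak tail current of the secondary pulse compared with the same well before compound.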

Chain of human ether-à-go-go-related gene (hERG) potassium channel (Q12809 whole entry, looked up): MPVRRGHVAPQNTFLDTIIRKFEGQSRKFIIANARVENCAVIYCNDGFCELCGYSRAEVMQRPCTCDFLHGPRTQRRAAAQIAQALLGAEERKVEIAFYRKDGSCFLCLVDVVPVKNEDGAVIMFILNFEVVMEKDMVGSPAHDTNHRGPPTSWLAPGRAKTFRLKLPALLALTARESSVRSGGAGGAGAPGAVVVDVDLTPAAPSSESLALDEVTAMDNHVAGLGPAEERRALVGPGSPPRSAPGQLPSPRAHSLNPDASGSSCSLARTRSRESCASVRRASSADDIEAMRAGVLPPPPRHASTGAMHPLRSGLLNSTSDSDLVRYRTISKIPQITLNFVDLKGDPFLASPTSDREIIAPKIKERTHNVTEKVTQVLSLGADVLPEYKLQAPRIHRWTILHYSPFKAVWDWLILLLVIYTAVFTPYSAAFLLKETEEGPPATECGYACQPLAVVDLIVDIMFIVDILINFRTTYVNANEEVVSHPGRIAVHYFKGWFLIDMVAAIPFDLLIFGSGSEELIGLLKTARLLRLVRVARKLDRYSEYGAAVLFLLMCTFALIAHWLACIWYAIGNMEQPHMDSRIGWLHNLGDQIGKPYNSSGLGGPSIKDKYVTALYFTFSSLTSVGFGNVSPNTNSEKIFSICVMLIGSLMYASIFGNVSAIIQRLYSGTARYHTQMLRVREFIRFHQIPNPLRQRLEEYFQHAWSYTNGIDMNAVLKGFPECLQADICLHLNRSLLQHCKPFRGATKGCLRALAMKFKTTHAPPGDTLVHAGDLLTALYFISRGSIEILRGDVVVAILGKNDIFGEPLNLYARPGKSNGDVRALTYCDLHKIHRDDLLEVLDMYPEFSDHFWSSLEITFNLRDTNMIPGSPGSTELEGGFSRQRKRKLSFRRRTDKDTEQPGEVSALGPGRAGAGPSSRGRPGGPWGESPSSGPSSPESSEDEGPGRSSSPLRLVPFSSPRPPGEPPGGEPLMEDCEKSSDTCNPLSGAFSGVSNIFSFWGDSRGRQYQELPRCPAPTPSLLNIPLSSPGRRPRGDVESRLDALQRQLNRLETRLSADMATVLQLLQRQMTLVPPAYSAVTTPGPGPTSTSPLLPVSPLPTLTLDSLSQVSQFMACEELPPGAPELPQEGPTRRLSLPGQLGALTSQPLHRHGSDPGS

Row | Structure (SMILES) | hERG current change (%, negative = inhibition) at 10uM [%]
1 | COc1ccc(CN2CCCC(C(=O)N3CCCCC3)C2)cc1.O=C(O)C(=O)O (stereo not drawn) | -8.21
2 | CCCC(=O)Nc1cc(=O)[nH]c2ncnn12 | 0.0505
3 | CCCn1c(C)cc(C(=O)CSc2nc3nc(C)cc(C)n3n2)c1C | 6.97
4 | COc1ccc(C)cc1NC(=O)COC(=O)c1ccc([N+](=O)[O-])o1 | 10.1
5 | O=C(NCC1CCCN1S(=O)(=O)c1cccs1)c1c(F)cccc1F (stereo not drawn) | 8.8
6 | CC(=O)N(CCC1(C(C)C)CCOC(C)(C)C1)C(C)c1cccs1 (stereo not drawn) | -2.41
7 | CC1(CC(=O)N/N=C/c2ccc(-c3ccc(C(=O)O)cc3)o2)OCCO1 | -8.3
8 | CC(CO)Nc1nc(SCc2ccccc2)nc2sc3c(c12)CCC3 (stereo not drawn) | 20.2
9 | Cc1ccc(C(C)NC(=S)NC2CCCCC2)cc1C (stereo not drawn) | 9.55
10 | COc1ccc(C(=O)NCC(=O)OCc2ccccc2F)cc1 | 1.5
11 | Cc1cc(C)c(S(=O)(=O)N(CC(=O)N2CCOCC2)C2CCCCC2)c(C)c1 | -21.9
12 | CCn1c(CN2CCN(c3ccc(Cl)cc3)CC2)nc2ccccc21 | -55.3
13 | Cc1nn(CC(=O)N2CCOCC2)c(=O)c2c1sc1ccccc12 | -24.7
14 | CCc1ccc(NC(=O)CCn2c(=O)oc3ccccc32)cc1 | -10.1
15 | O=C(NNC(=O)C1CCC1)c1cccc(Cl)c1 | -5.52
16 | O=C(Nc1nc2c(F)cc(F)cc2s1)C1COc2ccccc2O1 (stereo not drawn) | 5.17
17 | COc1ccc(N(CC(=O)NCCSc2ccccc2)S(=O)(=O)c2ccccc2)cc1OC | -6.45
18 | O=C(c1c[nH]c2ccc(F)cc2c1=O)N1CCCCCC1 | 4.09
19 | O=C(O)Cc1ccc(NCc2ccccc2Cl)cc1 | -24.6
20 | CN(C)c1ccc(S(=O)(=O)N2CCCCC2)cc1NC(=O)CN1C(=O)NC2(CCCC2)C1=O | 8.25
21 | Cc1ccc(C(=O)N/C(=C\c2cccs2)c2nc3ccccc3[nH]2)cc1 | -15.5
22 | Cc1cccc(C(=O)N[C@H](C(=O)OCC(=O)NC(=O)c2cccn2C)C(C)C)c1 | -7.08
23 | O=C(Nc1ccccc1)c1cc(S(=O)(=O)NCc2ccncc2)ccc1Cl | -41.5

Row | Structure (SMILES) | hERG current change (%, negative = inhibition) at 10uM [%]
24 | CCS(=O)(=O)N1CCC(C(=O)Oc2ccc(Cl)cc2)CC1 | 15.8
25 | O=C(Cc1cccc2ccccc12)NCC1CCCO1 (stereo not drawn) | -5.85
26 | N#Cc1cccc(OCC(=O)NC(=O)NCc2ccccc2)c1 | -20.5
27 | COc1ccc(Cl)cc1NS(=O)(=O)N1CCOCC1 | 6.86
28 | COc1ccc(CNCCc2c[nH]c3ccccc23)cc1OC.O=C(O)C(=O)O | -28
29 | O=C(CCC(=O)Nc1ccccc1)NNC(=O)C(c1ccccc1)c1ccccc1 | -0.585
30 | O=C(C1CCCCC1)N1CCN(c2ncccn2)CC1 | -4.8
31 | COc1ccc(CCNC2CCC(c3ccccc3)CC2)cc1 (stereo not drawn) | -70.8
32 | COCCN(CCOC)C(=O)C1CCN(c2ccc(S(=O)(=O)N3CCOCC3)cc2[N+](=O)[O-])CC1 | -35.5
33 | Cc1nc2nc(SCC(=O)NCc3ccco3)nn2c(C)c1Cc1ccccc1 | -32
34 | Cc1cccc(-c2nc3ccccc3c(=O)[nH]2)c1 | 6.98
35 | CCOc1ccc(CC(=O)C2=C(N3CCOCC3)CC(C)(C)CC2=O)cc1OCC | 9.02
36 | COc1cccc(N(C(=O)Cn2nnc(-c3cccs3)n2)C(C(=O)NC(C)C)c2ccc(C)o2)c1 (stereo not drawn) | 6.36
37 | COCCNC(=O)CN(C)S(=O)(=O)c1ccc(Br)cc1 | 8.16
38 | C=CCn1c(O)c(C=NCCCn2ccnc2)c(=O)[nH]c1=O | -6.01
39 | O=C(/C=C/Nc1ccccc1OC(F)(F)F)C(F)(F)F | 8.23
40 | COc1ccc(OC)c(S(=O)(=O)N2CCC(C(=O)N3CCCCCC3)CC2)c1 | 5.45
41 | COc1ccc(NC(=O)N(CCCN(C)C)Cc2cc3cc(OC)ccc3[nH]c2=O)cc1 | -38.5
42 | COc1cccc(N2CCN(S(=O)(=O)c3cc4c(cc3C)N(C)CCO4)CC2)c1 | -7.15
43 | COc1ccc(C(=O)Nc2cc(C(C)=O)c(C)oc2=O)cc1 | 20.9
44 | COc1ccc(C(=O)n2nc(-c3ccco3)nc2N)cc1 | -2.65
45 | CCOC(=O)c1ccc(NC(=O)c2c(Cl)cc(C)nc2C)cc1.Cl | -5.79
46 | Cc1c(/C=N/Nc2ccc(F)cc2)c(O)n(C)c(=O)c1C#N | 14.6

Row | Structure (SMILES) | hERG current change (%, negative = inhibition) at 10uM [%]
47 | COC(=O)c1cn(NC(=O)c2cccnc2)c(=O)c2ccccc12 | 17.2
48 | CN1/C(=C\C(=O)c2cccs2)C(C)(C)c2ccccc21 | -8.57
49 | N=C1C(c2nc(-c3cccc([N+](=O)[O-])c3)cs2)=C(O)CN1NC(=O)c1ccco1 | 15.3
50 | CNc1nc(Cl)nc(Nc2ccccc2)n1 | 25.6
51 | CN(Cc1ccccn1)Cc1cn(Cc2ccccc2)nc1-c1ccc2c(c1)OCO2 | -20.6
52 | CCCN1CCC(=O)N([C@H](CSc2ccc(OC)cc2)Cc2ccccc2)CC1 | -70.5
53 | CCCCNC(=O)CCn1nc(-c2ccc(Cl)cc2)ccc1=O | -23.4
54 | O=C(NC1CCCCC1)Oc1cccc2ccccc12 | 14.9
55 | N/C(=N\OC(=O)c1ccc2c(c1)OCO2)c1cccc(Br)c1 | 15.6
56 | O=C(NC1CCCCCCC1)c1cccnc1 | 2.56
57 | CC1CCc2nn(CC(=O)NC3CCCC(C)C3C)cc2C1 (stereo not drawn) | 0.882
58 | O=C(CSc1nc2ncc(Cl)cc2[nH]1)NCCc1ccc(F)cc1 | 5.69
59 | CCOC(=O)c1cc(CC)sc1/N=C/C1C(=O)CCCC1=O | 10.9
60 | O=C(O)c1cc(NC(=O)C2CCCO2)cc(NC(=O)C2CCCO2)c1 (stereo not drawn) | 4.52
61 | O=C(CC1C(=O)NCCN1C(=O)c1ccc([N+](=O)[O-])cc1)Nc1cccc(Cl)c1 (stereo not drawn) | -40.4
62 | COc1ccc(C2NC(=O)CS2)cc1 (stereo not drawn) | -13.2
63 | N#C/C(=C/c1ccco1)C(N)=S | 14.7
64 | O=C(/C=C\NCC(=O)c1ccccc1)c1ccc2ccccc2c1 | -2.39
65 | O=C1C(Cc2ccc(F)cc2)SC(=Nc2ccccc2)N1c1ccccc1 (stereo not drawn) | -0.735
66 | Oc1ccccc1C1=Nc2nc3ccccc3n2C(c2ccccc2)C1 (stereo not drawn) | 1.84
67 | O=C(O)CCNC(=O)OCC1c2ccccc2-c2ccccc21 | -6.49
68 | COc1ccc(CNC(=O)CCNS(=O)(=O)c2ccc(Cl)cc2)cc1 | -15.3
69 | CC1=CC2=NC(=O)/C(=C\c3ccc(-c4cccc(Cl)c4)o3)C(=N)N2O1 | 1.57

Row | Structure (SMILES) | hERG current change (%, negative = inhibition) at 10uM [%]
70 | Cc1cc(NC(=S)NC(=O)c2ccccc2)ccc1-c1cc2ccccc2oc1=O | 7.22
71 | O=C(CSc1nnc(NC(=O)c2ccc(F)cc2F)s1)NC1CCCC1 | 17.7
72 | CN(CC(=O)Nc1ccc(F)cc1)C(=O)CCc1nc2sc3c(c2c(=O)[nH]1)CCCC3 | -19.2
73 | O=C(COC(=O)c1ccc(O)cc1)Nc1ncc(Cl)cc1Cl | -4.31
74 | Cc1ccc(NC(=O)c2ccc3nccnc3c2)c(C)c1 | -2.58
75 | CS(=O)(=O)N1CCC(C(=O)Nc2cc(C(F)(F)F)ccc2Cl)CC1 | -6.72
76 | CC(=O)Nc1cccc(NC(=O)CSc2n[nH]c(-c3ccccc3)n2)c1 | 10.6
77 | Cn1c(=O)c2c(SCC(=O)N3CCCc4ccccc43)nc(C3CC3)nc2n(C)c1=O | -6.42
78 | CCOC(=O)C1Nc2c(cc(C(F)(F)F)cc2[N+](=O)[O-])C2c3ccccc3CC12 (stereo not drawn) | 2.2
79 | Cc1ccc(NC(=S)NCC2CCCO2)cc1 (stereo not drawn) | -21
80 | C#Cc1ccc([C@H]2C=C(C(=O)Nc3ccccc3)O[C@@H](OCc3ccc(CO)cc3)C2)cc1 | 6.29
81 | Cc1cc(C(=O)COC(=O)C2=NNC(=O)CC2)c(C)n1-c1ccccc1 | -7.67
82 | Cc1cc(C)cc(NC(=O)c2cccc3c2C(=O)N(C2CCCCC2)C3)c1 | 9.7
83 | CC(C)C1CCN(C(=O)C2CCC(=O)N(CCc3ccc(Cl)cc3)C2)CC1 (stereo not drawn) | -52.6
84 | CN(CC1CCOCC1)C(=O)CC1C(=O)NCCN1Cc1ccccc1F (stereo not drawn) | 14.3
85 | Cc1cc(CN(C)C(=O)CC2C(=O)NCCN2Cc2ccc(F)c(F)c2)on1 (stereo not drawn) | 31.1
86 | Cc1ccc(-n2c(SCC(=O)NCc3ccco3)nc3c(sc4ccccc43)c2=O)cc1 | 14.8
87 | COc1ccc(CN(C)C(=O)Cc2c[nH]c3ccccc23)c(OC)c1OC | 12.4
88 | Cc1cc(-c2cc(-c3ccc(Cl)cc3)nc(N)c2C#N)co1 | -1.55
89 | COc1ccc(CCC2CCNCC2)cc1.Cl | 8.29
90 | COc1ccc(OCC(=O)Nc2ccc(S(=O)(=O)N3CCN(C)CC3)cc2)cc1 | 0.00648
